Test results: patent US20060093599A1 (Amgen, published 2006)

Target: T1, human C3b (human, UniProt P01024 23-667; P01024 in part)
T1 construct: Bought human C3b (Calbiochem), coated on microtiter wells; also called complement protein C3b
Experiment: C3b-properdin binding ELISA: human C3b coated, properdin 1 nM, C3b-bound properdin detected with mouse anti-properdin P#2; wells without C3b as background

human C3b, sequence (P01024 23-667 limits assumed, chain 1 of 2): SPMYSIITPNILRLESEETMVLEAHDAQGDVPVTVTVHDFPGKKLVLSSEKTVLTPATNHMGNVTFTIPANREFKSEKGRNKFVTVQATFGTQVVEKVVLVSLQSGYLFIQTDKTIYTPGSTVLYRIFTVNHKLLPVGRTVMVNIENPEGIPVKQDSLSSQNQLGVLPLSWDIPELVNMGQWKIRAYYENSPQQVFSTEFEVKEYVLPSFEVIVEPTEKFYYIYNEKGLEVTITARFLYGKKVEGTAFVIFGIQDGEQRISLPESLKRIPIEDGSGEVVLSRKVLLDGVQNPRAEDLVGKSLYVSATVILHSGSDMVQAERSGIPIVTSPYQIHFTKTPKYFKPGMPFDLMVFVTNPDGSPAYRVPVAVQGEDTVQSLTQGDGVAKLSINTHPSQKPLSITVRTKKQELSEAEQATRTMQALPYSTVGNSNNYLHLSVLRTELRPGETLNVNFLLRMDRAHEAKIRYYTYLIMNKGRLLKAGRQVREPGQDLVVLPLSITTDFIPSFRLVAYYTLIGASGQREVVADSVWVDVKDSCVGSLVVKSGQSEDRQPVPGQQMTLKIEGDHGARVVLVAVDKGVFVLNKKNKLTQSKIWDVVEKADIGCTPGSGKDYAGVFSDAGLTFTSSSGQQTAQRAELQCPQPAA
human C3b, sequence (P01024 749-1663 limits assumed, chain 2 of 2): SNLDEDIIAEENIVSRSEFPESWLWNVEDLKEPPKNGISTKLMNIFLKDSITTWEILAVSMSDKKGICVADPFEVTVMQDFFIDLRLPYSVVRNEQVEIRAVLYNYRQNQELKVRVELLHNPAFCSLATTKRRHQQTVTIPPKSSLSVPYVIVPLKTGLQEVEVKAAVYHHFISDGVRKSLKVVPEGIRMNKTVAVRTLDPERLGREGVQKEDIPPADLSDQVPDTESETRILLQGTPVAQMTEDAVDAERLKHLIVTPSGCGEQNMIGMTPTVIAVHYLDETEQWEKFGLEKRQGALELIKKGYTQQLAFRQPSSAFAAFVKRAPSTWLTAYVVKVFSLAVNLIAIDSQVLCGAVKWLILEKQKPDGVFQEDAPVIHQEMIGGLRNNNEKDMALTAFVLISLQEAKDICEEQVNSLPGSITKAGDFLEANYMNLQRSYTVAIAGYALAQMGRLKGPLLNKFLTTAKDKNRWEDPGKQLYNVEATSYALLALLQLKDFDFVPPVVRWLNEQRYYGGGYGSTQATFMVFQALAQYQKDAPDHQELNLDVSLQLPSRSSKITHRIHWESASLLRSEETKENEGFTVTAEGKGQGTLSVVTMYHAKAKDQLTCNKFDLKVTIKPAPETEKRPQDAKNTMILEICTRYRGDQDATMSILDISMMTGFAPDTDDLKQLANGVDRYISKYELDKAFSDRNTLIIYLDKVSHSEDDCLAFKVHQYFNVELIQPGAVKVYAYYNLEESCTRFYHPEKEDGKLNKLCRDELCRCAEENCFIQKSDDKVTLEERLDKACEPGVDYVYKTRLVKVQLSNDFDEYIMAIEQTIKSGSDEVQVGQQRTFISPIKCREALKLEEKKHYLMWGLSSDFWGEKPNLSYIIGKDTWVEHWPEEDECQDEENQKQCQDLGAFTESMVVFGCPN

binding result: binds
B1: human properdin (other, UniProt P27918 28-469, looked up)
chain: DPVLCFTQYEESSGKCKGLLGGGVSVEDCCLNTAFAYQKRSGGLCQPCRSPRWSLWSTWAPCSVTCSEGSQLRYRRCVGWNGQCSGKVAPGTLEWQLQACEDQQCCPEMGGWSGWGPWEPCSVTCSKGTRTRRRACNHPAPKCGGHCPGQAQESEACDTQQVCPTHGAWATWGPWTPCSASCHGGPHEPKETRSRKCSAPEPSQKPPGKPCPGLAYEQRRCTGLPPCPVAGGWGPWGPVSPCPVTCGLGQTMEQRTCNHPVPQHGGPFCAGDATRTHICNTAVPCPVDGEWDSWGEWSPCIRRNMKSISCQEIPGQQSRGRTCRGRKFDGHRCAGQQQDIRHCYSIQHCPLKGSWSEWSTWGLCMPPCGPNPTRARQRLCTPLLPKYPPTVSMVEGQGEKNVTFWGRPLPRCEELQGQKLVVEEKRPCLHVPACKDPEEEEL
